Data taken from PubChem BioAssay AID485344 (National Center for Advancing Translational Sciences (NCATS), 2010).
Hit rate of the full screen: of about 340,000 compounds, about 6,900 (2%) were called active. Cut-off read from the data, not from the text of the source: active = inhibition above about 30%; inactive = below that, where a call was filed. The entries are a selection whose mix differs from that of the whole data set. The source gives no active or inactive call for entries shown without one.

Molecular target: D(2) dopamine receptor (Homo sapiens) (UniProt P14416)
Assay: HTS Assay for Allosteric Antagonists of the Human D2 Dopamine Receptor: Primary Screen for Antagonists; note: 0% is about no effect
Conditions: HEK293 TREx D2 cells, calcium flux, dopamine EC80; at 10 µM; stronger effect = higher value
Method in brief: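 HEK293 T-REx D2 cells, tet-induced, calcium dye no-wash. Cpd pintool add, 180 s kinetic, then EC80 DA, 180 s kinetic. Ca flux read.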

Chain of UniProt P14416 (P14416 whole entry, looked up): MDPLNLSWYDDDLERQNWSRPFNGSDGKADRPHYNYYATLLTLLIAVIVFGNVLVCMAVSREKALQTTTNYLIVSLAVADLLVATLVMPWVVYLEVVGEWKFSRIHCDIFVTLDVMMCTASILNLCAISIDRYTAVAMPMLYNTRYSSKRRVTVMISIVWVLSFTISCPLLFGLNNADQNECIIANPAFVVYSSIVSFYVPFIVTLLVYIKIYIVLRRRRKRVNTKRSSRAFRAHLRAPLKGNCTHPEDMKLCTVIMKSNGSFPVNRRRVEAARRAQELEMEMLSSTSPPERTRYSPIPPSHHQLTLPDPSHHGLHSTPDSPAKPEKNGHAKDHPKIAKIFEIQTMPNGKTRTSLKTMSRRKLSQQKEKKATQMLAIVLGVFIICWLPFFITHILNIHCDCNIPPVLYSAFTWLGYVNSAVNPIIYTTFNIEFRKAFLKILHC

SMILES | inhibition
CCOC(=O)c1cccc(NC(=O)C2CCCN(S(=O)(=O)c3cc(Br)cc4c3N(C(=O)CC)CC4)C2)c1 (stereo not given) | 0.574%
O=C(NCC1CCN(Cc2ccc(F)cc2)CC1)c1cc2ccc3cccnc3c2[nH]1 | -2.56%
CCOc1ccc(NC(=O)Cn2c(=O)oc3cc(S(=O)(=O)N4CCC(C)CC4)ccc32)cc1 | -9.61%
CCOc1ccc(NC(=O)CN2CCN(c3ccc(Cl)cc3)CC2)cc1 | -14.5%
Cn1c(=O)cc(SCC(=O)NCCCN2CCN(c3ccccc3F)CC2)c2ccccc21 | active: 91.6%
O=C(c1cc(F)cc(F)c1)N1CCC(c2nc(-c3ccc(S(=O)(=O)N4CCCC4)cc3)no2)CC1 | 11.6%
COc1ccc(OC)c(CCNC(=O)c2cc3c(=O)n(C)c4ccccc4c3n2C)c1 | 1.59%
CCCCN(CC)CCCNC(=O)c1cn(CC)c2ccc(S(=O)(=O)N3CCOCC3)cc2c1=O | 5.31%
Cc1ccc(NC(=O)CSc2nc(-c3ccco3)cc(C(F)(F)F)n2)cc1C | 8.31%
CCOc1ccccc1-n1nnc(S(=O)(=O)c2ccc(C)cc2)c1N | -16.6%
COc1ccc(C2N3CC4(C)CN2CC(c2ccccc2)(C3)C4=O)cc1 (stereo not given) | -13.5%
Cc1ccc(NC(=O)c2nc(-c3ccncc3)no2)c(Cl)c1 | 10.9%
COc1cc(NC(=O)c2ncn(-c3ccccc3)n2)cc(OC)c1 | 5.9%
Cn1ncc(C(=O)N2CCN(c3ccccc3F)CC2)c1C1CCN(C(=O)OC(C)(C)C)CC1 | 3.25%
Cc1cc(SCC(=O)NCc2ccc(F)cc2)nc(=O)[nH]1 | 12.7%
CC(=O)c1ccc(NC(=O)CSc2nccn2Cc2ccc3c(c2)OCO3)cc1 | 2.45%
CCCN1C(C(=O)c2ccccc2)=C(OC(=O)c2ccc(C)cc2)c2ccccc2S1(=O)=O | -9.92%
O=C(NC12CC3CC(CC(C3)C1)C2)N1CCN(c2ccccn2)CC1 | active: 31.1%
Cc1ccc(NC(=O)Cn2c(=O)ccc3cc(S(=O)(=O)N4CCC(C)CC4)ccc32)cc1C | -2.61%
COc1ccc(NC(=O)c2c(C)oc3ccc(O)c(CN4CCOCC4)c23)cc1 | 4.68%
Cc1cccc(NC(=O)CSc2nc(=O)n(Cc3cccnc3)c3c2CCC3)c1 | 15.8%
O=C(COc1ccc(Cl)cc1)NCCc1csc(-c2cccc(F)c2)n1 | -18%
CCOc1ccc(NC(=O)c2oc3ccccc3c2NC(=O)Cc2cccc(C)c2)cc1 | 3.84%
COc1ccc(OC)c(NS(=O)(=O)c2ccc(Br)s2)c1 | 6.66%

SMILES | inhibition
CC(C)c1ccc(NC(=O)CCNS(=O)(=O)c2cccc3nsnc23)cc1 | 11.8%
COc1ccc(C(=O)Oc2ccc(C(c3c(C)[nH][nH]c3=O)c3c(C)[nH][nH]c3=O)cc2OC)cc1 | 8.25%
CN1CCN(CCC(=O)Nc2ccc(Cl)cc2)CC1 | -11.9%
O=C(CSc1nc(=O)[nH]c2c1CCC2)NCc1ccc(F)cc1 | -9.19%
Cc1cccc(C(=O)Nc2ccc(S(=O)(=O)N3CCCCC3c3cccnc3)cc2)c1 (stereo not given) | -21.2%
Cc1ccc(-n2ncc3c(N4CCN(Cc5ccccc5)CC4)ncnc32)cc1 | -11.8%
COc1ccc(Cl)cc1S(=O)(=O)N1CCN(C(=O)c2cc(-c3ccc(Br)cc3)n[nH]2)CC1 | 4.57%
Cc1cccc(-c2nc(C)c(CCNC(=O)C(=O)Nc3ccc(C)c(C)c3)s2)c1 | -0.389%
CCOc1ccccc1CNc1nc2nc(C)c(CC(=O)OC)c(=O)n2[nH]1 | -3.04%
CC1=C(C(=O)Nc2ccccc2C)C2(CCCCC2)C(C(N)=O)C(=S)N1 (stereo not given) | active: 38%
COc1ccc2c(Sc3ccccc3)c(C(=O)NCc3cc(Br)ccc3OC)[nH]c2c1 | -16.6%
O=C(CC(c1cccs1)N1Cc2ccccc2C1=O)Nc1cccc(F)c1 (stereo not given) | 4.13%
CCCn1ccc2c(OCC(=O)Nc3ccc(OC)c(OC)c3)cccc2c1=O | 8.51%
O=C(NCCc1ccc(F)cc1)C(=O)NCC(c1cccs1)S(=O)(=O)c1ccccc1 (stereo not given) | 8.45%
COc1ccccc1CNC(=O)c1ccc(CSc2nc3ccncc3n2Cc2cccc(F)c2)cc1 | 12.6%
Cc1ccc(CNC(=O)C(C)n2c(=O)cc(-c3ccccc3)c3c(C)nn(C)c32)cc1 (stereo not given) | 6.03%
Cc1ccc2nc(-c3c[nH]c4ccccc34)c(Nc3ccc(F)cc3)n2c1 | 12.6%
O=C(CCS(=O)(=O)c1cccc2nonc12)Nc1ccc(F)cc1F | 3.33%
COc1ccc(Br)cc1CNC(=O)Cn1ncn2nc(-c3cccs3)cc2c1=O | 21.6%
Cc1oc(-c2ccccc2Cl)nc1CSc1nncn2c1cc1occc12 | -2.4%
COc1ccccc1N1CCN(C(=O)c2ccc3c(c2)CCN3S(=O)(=O)c2ccccc2)CC1 | 12.6%
CCc1c(C)nc2nc(-c3ccccc3)nn2c1NCc1ccc(C)cc1 | -4.34%
COc1cccc2[nH]c(C(=O)NCc3ccc4c(c3)CCN4C(=O)c3ccc(F)cc3)cc12 | 3.88%
COc1ccc(CNC(=O)c2ccc(-c3nc(CS(=O)c4ccc(C)cc4)c(C)o3)cc2)cc1 (stereo not given) | 1.52%

SMILES | inhibition
COc1ccc2c(c1)c(=O)c(C(=O)c1ccc(Cl)cc1)cn2CC(=O)Nc1ccc2c(c1)OCCO2 | 19.1%
Cc1oc2ccc(O)c(CN3CCCC(C)C3)c2c1C(=O)Nc1ccccc1 (stereo not given) | -1.42%
O=C1CC2(CCCC2)CC(=O)N1CCCCN1CCN(c2ncccn2)CC1 | active: 87.9%
O=C(CSc1cn(CCNC(=O)c2c(F)cccc2F)c2ccccc12)Nc1ccccc1F | -3.38%
COc1ccc(Cn2c(CCC(=O)Nc3ccccc3OC)nc3cccnc32)cc1 | -8.45%
CC(=O)Nc1ccc(NC(=O)C2Cc3ccccc3N2C(=O)c2ccccc2)cc1 (stereo not given) | 12.8%
Cc1ccc(OC(=O)CSc2nnc(-c3cccs3)o2)c(C)c1 | 10.2%
CC1=C(C(=O)OC2CCCCCC2)C(c2ccc(Cl)cc2)CC(=O)N1 (stereo not given) | 10.4%
COc1ccc(Cl)cc1C(=O)NCc1nc(-c2cccc(C)c2)no1 | 13.3%
O=C(c1ccc([N+](=O)[O-])cc1)N1c2ncnn2C2(CCCCC2)[C@@H]2CCCC[C@@H]21 | 3.97%
Cc1cc(C)c(NC(=O)Cc2ccc(-n3c(C)nc4cccnc43)cc2)c(C)c1 | -6.04%
CCOc1cc(C2C(C(=O)OC)=C(C)NC3=C2C(=O)c2ccccc23)cc(Br)c1OCC (stereo not given) | -8.14%
Cc1ccc(-c2nc3c(c(SCC(=O)Nc4cccc(C(=O)O)c4)n2)Cc2cccc(C)c2O3)cc1 | -0.959%
CCCc1cc(=O)[nH]c(SCC(=O)NC(=O)NC2CCCC2)n1 | active: 32.1%
CCN(CC)CCNC(=O)c1ccc2c(=O)n3nc(Nc4ccccc4)sc3nc2c1 | -11%
CC1=C(C(=O)Nc2cccc(C(F)(F)F)c2)C2(CCN(C(C)C)CC2)OC1=O | -6.41%
COc1ccc(-c2nc3ccccc3o2)cc1NC(=O)c1ccc(-c2cccc(Cl)c2C)o1 | -0.719%
Cc1ccc(Cl)cc1N1CCN(C(=O)COCc2cc(-c3ccc4c(c3)OCO4)on2)CC1 | 5.02%
Cc1c(-c2nc(-c3ccc4c(c3)OCO4)no2)nnn1-c1cccc(C(F)(F)F)c1 | 13.8%
COc1cccc(NC(=O)C2CCN(c3nnc(-n4c(C)ccc4C)s3)CC2)c1 | 2.58%
COc1ccccc1NC(=O)NCc1ccc2c(c1)OCO2 | active: 32.6%
CSCCC(NC(=O)c1ccco1)C(=O)OC(C)C(=O)NC(=O)NC1CCCCC1 (stereo not given) | active: 49.3%
COc1ccc(CCNC(=O)CCn2c(=O)c3ccccc3n(Cc3ccccc3C)c2=O)cc1OC | -10.1%
O=C(Nc1ccc(OC(F)(F)F)cc1)C1CC(=O)N(Cc2ccco2)C1 (stereo not given) | active: 47.3%

SMILES | inhibition
CCCNC(=O)CSc1cn(CC(=O)N2CCCCCC2)c2ccccc12 | 11%
CCOc1ccc(-c2nnc(SCC(=O)Nc3cccc(Cl)c3C)o2)cc1 | 11.7%
O=C(CSc1nc2sc3c(c2c(=O)[nH]1)CCCC3)Nc1ccccc1F | -14.5%
Cc1ccc(NC(=O)CCn2cnc3onc(-c4ccc(F)cc4)c3c2=O)c(Br)c1 | 7.26%
CC(C)Oc1ccc(CNS(=O)(=O)c2ccc(-c3cc(C(F)(F)F)on3)s2)cc1 | 6.68%
Cc1ccc2nc(CN3CCN(S(=O)(=O)c4ccc(F)cc4)CC3)oc2c1 | 2.92%
Cc1ccc2oc(C(=O)Nc3ccc(S(=O)(=O)Nc4nc(C)cc(C)n4)cc3)cc(=O)c2c1 | 14.1%
COc1ccc(NC(=O)C2CCCN2S(=O)(=O)c2ccc(F)cc2)cc1 (stereo not given) | active: 30.4%
Cc1ccc(C(C)C)cc1NC(=O)Nc1ccc([N+](=O)[O-])cc1 | active: 37.4%
CCOc1ccc(Nc2c3c(nc4nncn24)CCC3)cc1 | 15.8%
O=C(NCCc1ccccc1)c1cc(-c2ccc(Cl)c(Cl)c2)on1 | -9.45%
Cc1c(CC(=O)NCc2ccccc2Cl)c(=O)oc2cc(O)ccc12 | 18.1%
COc1cc(OC)cc(N2C(=O)CSC23C(=O)Nc2ccccc23)c1 (stereo not given) | 5.03%
COc1ccc(C(=O)OCc2cc(=O)n3nc(C4CC4)sc3n2)cc1OC | -3.9%
O=C(Nc1ccc(C(=O)OCc2cc(=O)n3c4c(sc3n2)CCCC4)cc1)c1cccc(F)c1 | -14.2%
Cc1cccc(C(=O)Nc2ccccc2OCc2cc(=O)n3c(C)csc3n2)c1 | -3.26%
COc1ccc(CCNc2nc3c(c(=O)n(C)c(=O)n3C)n2Cc2ccccc2Cl)cc1OC | 1.61%
O=C(Cn1cc(S(=O)(=O)Cc2ccccc2F)c2ccccc21)NCc1ccccc1 | 20.4%
Cc1csc2nc(-c3cccc(NC(=O)c4c(F)cccc4F)c3)cn12 | 12%
CN1C(=O)c2ccccc2Sc2ccc(NC(=O)c3ccc(C#N)cc3)cc21 | -14.8%
COC(=O)C(CCSC)NC(=O)c1cc2c(n(-c3ccccc3)c1=O)CC(C)(C)CC2=O (stereo not given) | 16.4%
COc1ccc(-c2cc(C(=O)Nc3c(C)n(C)n(-c4ccccc4)c3=O)no2)cc1 | 19.2%
Cc1cc2oc(C(=O)Nc3c(C)n(C)n(-c4ccccc4)c3=O)cc(=O)c2cc1C | 3.67%
